From PubChem BioAssay AID588855 (National Center for Advancing Translational Sciences (NCATS), 2011)
The whole screen tested about 410,000 compounds, of which about 5,000 (1.2%) were called active. Inconclusive results, whose numbers are uncertain, are shown with a selection of clear calls. Calls come from the whole dose curve; as a rule, active = well fitted inhibition curve with a large enough effect; inconclusive = small, poorly fitted or top-dose-only effect; inactive = no such curve, though single readings can be large or run the other way. Where the call is inconclusive, the potency comes from a doubtful curve fit.

Assay: qHTS for Inhibitors of TGF-b; note: nearly all actives have a fitted effect of over 65% in size
Settings: HepG2 CAGA-GFP TGF-b/SMAD3 reporter, GFP fluorescence, 18 h, TGF-beta stimulated, 500 pg/mL final; series mostly up to 46.1 µM; activity, negative = inhibition: at the top concentration
How it was run: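 Using HEPG2 CAGA-GFP reporter cells at 1000 cells/well, we pinned test compounds, stimulated with recombinant TGF-beta (500 pg/mL final) and measured total well GFP after 18 h.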
% is set by controls: 0 for no effect and ±100 for the full control effect; potency is the fitted concentration of half-maximal effect; tags give direction and shape of the fitted curve.

Compound | Potency | activity, negative = inhibition
CSc1ncc(C(=O)O)c(C)n1 | inconclusive: 35.5 µM [inhibitor, single point] | 
CC(=O)c1ccc(NC(=O)c2sc(-n3nc(C)c(Cc4ccc5c(c4)OCO5)c3C)nc2C)cc1 | inconclusive: 2.82 µM [inhibitor, partial curve, poor fit] | 
Nc1c(N(CCC2=CCCCC2)C(=O)Cc2ccc(F)cc2)c(=O)[nH]c(=O)n1Cc1ccccc1 | inconclusive: 35.5 µM [inhibitor, single point] | 
O=C(Nc1nc(-c2ccccn2)cs1)c1cc2ccccc2o1 | inconclusive: 35.5 µM [inhibitor, single point] | 
CCC1CCCCN1CCCNC(=O)c1ccc2c(c1)N(Cc1cccc(Cl)c1)C(=O)c1ccccc1S2(=O)=O (stereo not given) | active: 10 µM | 
Cc1cc(Cl)ccc1OCC(=O)NCC(c1cccs1)N1CCOCC1 (stereo not given) |  | inactive: -7.53%
CCN(CC)S(=O)(=O)c1ccc(N/N=C(\C)c2ccc(OC)cc2O)nc1 | active: 8.91 µM | 
Cc1cccc(Cc2cnc(N3C(=N)SC(c4ccccc4)C3=O)s2)c1 (stereo not given) | inconclusive: 35.5 µM [inhibitor, single point] | 
O=C1Nc2ccccc2/C1=C\c1cccn1-c1ccc(OC(F)(F)F)cc1 | inconclusive: 3.55 µM [inhibitor, single point] | 
Cc1ccc(N2C(=O)CSC23C(=O)N(CC(=O)NCCc2ccccc2)c2ccccc23)cc1 (stereo not given) |  | inactive: -5.9%
O=C(NC1CCCC1)C(NS(=O)(=O)c1ccc(Br)s1)c1ccccc1 (stereo not given) | inconclusive: 35.5 µM [inhibitor, single point] | 
COc1ccccc1N1CCN(S(=O)(=O)c2ccc(Cl)s2)CC1 | inconclusive: 3.55 µM [inhibitor, partial curve] | 
COc1ccc(OC)c(NC(=O)c2nnn(CC(=O)Nc3ccc(C(C)C)cc3)c2N)c1 | inconclusive: 35.5 µM [inhibitor, single point] | 
CCCCN(c1ccccc1)S(=O)(=O)c1cccc(C(=O)Nc2c(C)n(C)n(-c3ccccc3)c2=O)c1 | inconclusive: 22.4 µM [inhibitor, partial curve, poor fit] | 
COc1ccccc1CCNC(=O)C1(c2cccs2)CCOCC1 | inconclusive: 15.8 µM [inhibitor, single point] | 
CC(C)N(C(=O)CSc1nnc(NC(=O)Cc2cccs2)s1)C(C)C | inconclusive: 2.51 µM [inhibitor, partial curve, poor fit] | 
O=C(Oc1cccc(Nc2ncnc3ccccc23)c1)c1cccnc1 |  | inactive: 2.99%
C[C@@H]1CN([C@H](C)CO)C(=O)c2c(c3ccccc3n2C)-c2ccccc2CO[C@@H]1CN(C)S(=O)(=O)c1cccs1 | inconclusive: 35.5 µM [inhibitor, single point] | 
COc1ccc(N2CCN(C(=O)C3CCCN(S(=O)(=O)c4ccc5c(c4)oc(=O)n5C)C3)CC2)cc1 (stereo not given) | inactive | 
O=C(COc1ccc(Br)cc1Cl)NC1CCN(Cc2ccccc2)CC1 | inconclusive: 11.2 µM [inhibitor, partial curve] | 
CCC(C)C(=O)Nc1nnc(SCC(=O)Nc2ccccc2F)s1 (stereo not given) | inconclusive: 5.01 µM [inhibitor, full curve, poor fit] | 
c1ccc(-c2noc(CSc3nnc(Cc4cccs4)n3-c3ccccc3)n2)cc1 | inconclusive: 8.91 µM [inhibitor, partial curve, poor fit] | 

Compound | Potency | activity, negative = inhibition
CCCCn1c(N)c(N(CCOC)C(=O)COC(=O)CCOc2ccccc2C)c(=O)[nH]c1=O |  | inactive: -2.63%
CN(Cc1ccccc1)C(=O)c1ccc(CSc2nc3cccnc3n2Cc2ccccc2)cc1 | active: 20 µM | 
CCSc1nnc(-c2ccccc2N=Cc2c(C)[nH]n(-c3ccccc3)c2=O)c(=O)[nH]1 | inconclusive: 35.5 µM [inhibitor, single point] | 
CN(CC(=O)Nc1ccc(F)c(F)c1F)C(=O)C1CC(=O)N(c2ccc3c(c2)OCCO3)C1 (stereo not given) | inconclusive: 28.2 µM [inhibitor, single point] | 
CN(C)C(=O)c1ccc(N=Nc2c(O)c3ccccc3[nH]c2=O)cc1 |  | inactive: 14.8%
O=C(c1ccccc1)n1nc(-c2ccc(Cl)cc2)nc1NCc1ccco1 |  | inactive: 24.2%
CCCCOc1ccc(NC(=S)Nc2cc(C)nc(SCCCC)n2)cc1 |  | inactive: -0.797%
CCCCC(=O)N1C/C=C\C(c2ccc(OC)cc2)N(Cc2ccc(F)cc2)C(=O)C1C (stereo not given) | inconclusive: 25.1 µM [inhibitor, single point] | 
Cc1ccc(NC(=O)c2ccc(S(=O)(=O)N(C)c3ccccc3)cc2)cc1S(=O)(=O)N1CCOCC1 | inconclusive: 3.98 µM [inhibitor, partial curve] | 
CCc1ccccc1NC(=S)N=Nc1c(O)n(C)c2ccc(S(=O)(=O)N3CCOCC3)cc12 | inconclusive: 2.51 µM [inhibitor, partial curve, poor fit] | 
Cc1cc(C)n(CC(=O)c2ccc(Cl)cc2)n1 |  | inactive: -31.1%
CCCSc1ccc2nc(-c3ccccc3)cn2c1 | inconclusive: 17.8 µM [inhibitor, single point] | 
CC(=O)c1cccc(NC(=O)C(C)OC(=O)c2ccc(S(C)(=O)=O)c([N+](=O)[O-])c2)c1 (stereo not given) | active: 11.2 µM | 
COc1ccc(C(=O)N2CCC(n3nccc3NC(=O)C3CCOC3)CC2)cc1 (stereo not given) | inconclusive: 3.16 µM [inhibitor, partial curve, poor fit] | 
CN(CC1CCCN(CCc2cccc(C(F)(F)F)c2)C1)C(=O)c1cc2ccccc2o1 (stereo not given) | active: 12.6 µM | 
COc1ccc(-c2c(C#Cc3ccsc3)c3cc(-c4ccc5cc[nH]c5c4)ccc3n2C)cc1 |  | inactive: -7.57%
Cc1c(C(=O)NCCC2=CCCCC2)oc2ccc(S(=O)(=O)N3CCOCC3)cc12 | inconclusive: 10 µM [inhibitor, single point] | 
CC(=O)N1CCc2cc(Br)cc(S(=O)(=O)CCC(=O)NCc3ccc(F)cc3)c21 | inconclusive: 7.94 µM [inhibitor, partial curve, poor fit] | 
C=CCc1c(C)nc(C)nc1N/N=C/c1ccccc1O | inconclusive: 14.1 µM [inhibitor, single point] | 
COc1ccccc1CN1CCC(CNC(=O)c2cnn(-c3cccc(Cl)c3)c2C2CCN(C(=O)OC(C)(C)C)CC2)CC1 | inconclusive: 5.01 µM [inhibitor, partial curve] | 
Clc1ccccc1-c1nc2ccccc2[nH]1 |  | inactive: 11.9%
CC1CCCN(C(=O)COC(=O)c2cc([N+](=O)[O-])ccc2N2CCOCC2)C1 (stereo not given) | inconclusive: 35.5 µM [inhibitor, single point] | 

Compound | Potency | activity, negative = inhibition
Cc1ccc(C2OCC3(CO)COC(c4ccc(C)cc4)N23)cc1 (stereo not given) | inconclusive: 35.5 µM [inhibitor, single point] | 
COC(=O)c1[nH]c2ccc(C)cc2c1NC(=O)CN1CCCC(C)(C)C1 | inconclusive: 35.5 µM [inhibitor, single point] | 
CN(CC(=O)Nc1cccc(F)c1)C(=O)CCCc1cccs1 | inconclusive: 2.82 µM [inhibitor, single point] | 
Cc1ccc(OC(=O)CCC(=O)Nc2ccc(S(=O)(=O)Nc3cc(C)on3)cc2)cc1 | inconclusive: 35.5 µM [inhibitor, single point] | 
O=C(/C=C/c1cn(-c2ccccc2)nc1-c1cccnc1)N1CCCC1 |  | inactive: -23.4%
COc1ccc(-c2coc3cc4oc(=O)c5ccccc5c4cc23)cc1F | inconclusive: 0.631 µM [inhibitor, full curve, poor fit] | 
CC(=O)c1ccc(NC(=S)NC(C)CCc2ccccc2)cc1 (stereo not given) | active: 12.6 µM | 
COc1ccc(CNCCS(=O)(=O)NC2CCCCC2)cc1 |  | inactive: -26.8%
Cc1c(NC(=O)C(C)(C)Oc2ccc(Cl)cc2)cccc1-c1nc2ncccc2o1 | inconclusive: 14.1 µM [inhibitor, single point] | 
CCNC(=O)NS(=O)(=O)c1cnccc1Nc1cccc(Cl)c1 | inconclusive: 35.5 µM [inhibitor, single point] | 
COc1ccccc1NS(=O)(=O)c1cc(C(=O)N2CCCC2)ccc1F |  | inactive: -5.72%
CC(=O)c1ccc(NC(=O)Cn2cc(S(=O)(=O)Cc3ccccc3Cl)c3ccccc32)cc1 |  | inactive: 0%
CC(C)CNC(=O)c1ccc(NC(=O)c2ccccc2[N+](=O)[O-])cc1 |  | inactive: -4.44%
O=C(Nc1ccccc1)C1CC(=O)N(c2ccc3c4c(cccc24)CC3)C1 (stereo not given) | inconclusive: 14.1 µM [inhibitor, single point] | 
CCCC/C(C)=N/NC(=O)Nc1ccccc1 | inconclusive: 0.631 µM [inhibitor, full curve, poor fit] | 
CC1=C(C(=O)OCc2ccccc2)C(c2ccccc2-c2ccccc2)NC(=O)N1CCCCCC(=O)O (stereo not given) | inconclusive: 2.51 µM [inhibitor, full curve, poor fit] | 
Oc1c(Cl)cc(Cl)c(Cl)c1Cc1c(O)c(Cl)cc(Cl)c1Cl | active: 5.62 µM | 
COc1ccc2c(c1)c(=O)c(S(=O)(=O)c1ccc(C)cc1)cn2Cc1ccccc1C | inconclusive: 3.98 µM [inhibitor, full curve, poor fit] | 
N#C/C(=C\c1cccc([N+](=O)[O-])c1)C(=O)NCc1ccc(Cl)cc1 | inconclusive: 35.5 µM [inhibitor, single point] | 
O=C(C[C@@H]1C[C@H]2c3cc(NC(=O)c4cccnc4)ccc3O[C@H]2[C@H](CO)O1)NCc1ccc(Oc2ccccc2)cc1 | inconclusive: 35.5 µM [inhibitor, single point] | 
CN(CC(=O)Nc1ccc(Cl)c(C(F)(F)F)c1)S(=O)(=O)c1cnc[nH]1 |  | inactive: -17.7%
